Assay results taken from PubChem BioAssay AID1345083 (National Center for Advancing Translational Sciences (NCATS), 2018).
Hit rate of the full screen: of about 94,000 compounds, about 6,200 (6.6%) were called active. Inconclusive results, whose numbers are uncertain, are shown with a selection of clear calls. Calls follow the shape of the dose curve; as a rule, active = well fitted inhibition curve with a large enough effect; inconclusive = small, poorly fitted or top-dose-only effect; inactive = flat fitted curve, though single readings scatter. Potencies of inconclusive entries are doubtful fits and often do not repeat.

experiment: Cytotoxic Profiling in HEK 293 Cell Line of Diverse Libraries Using Quantitative High-Throughput Screening; details: HEK 293 viability, ATP luminescence (CellTiter-Glo), 48-72 h; series mostly up to 115 µM; also: nearly all actives have a fitted effect of over 60% in size
Summary of the method: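 HEK 293 cells at 250 cells/well were exposed to compounds by pintool transfer for 48 or 72 hr at 37 degree Celsius, 5% CO2. Viability was read as ATP-coupled luminescence with CellTiter-Glo after 10 min at room temperature.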
Potency is read from the fitted curve at half-maximal effect; tags tell the direction and shape of the fitted curve.

Row | SMILES | Potency
1 | COc1ccc(N2CC(COc3ccccc3)Oc3ncccc3C2=O)cc1 (stereo not drawn) | inconclusive: 39.8 µM [inhibitor, single point]
2 | Cn1ccnc1C(=O)N1CCCCCCNC(=O)[C@@H]2C[C@@H](c3nc(-c4cccnc4)no3)C[C@@H]21 | inactive
3 | O=C(c1ccccc1)N1Cc2ccccc2CC2(CCCN2Cc2cccnc2)C1 (stereo not drawn) | inconclusive: 56.2 µM [inhibitor, partial curve, poor fit]
4 | COc1ccc(C(C)NC(=O)c2cc3c(N4CCSCC4)nc(C)cn3n2)cc1OC (stereo not drawn) | inconclusive: 89.1 µM [inhibitor, single point]
5 | CC(C)CCN1CCC(N2CCN(C(=O)c3cccc(Br)c3)CC2)C1=O (stereo not drawn) | inactive
6 | CNC(=O)[C@@H]1C[C@H]2CN(C)C(=O)c3cccc(c32)N1C(=O)COc1ccccc1 | inconclusive: 39.8 µM [inhibitor, single point]
7 | COCC(=O)N[C@@H]1CNCC[C@@H]1c1nc(C)no1 | inactive
8 | CN(C)c1nc2c(c(=O)[nH]1)CCN(Cc1cc(Cl)ccc1F)CC2 | inconclusive: 79.4 µM [inhibitor, partial curve, poor fit]
9 | C[C@@H](NS(C)(=O)=O)c1onc(-c2ccccc2)c1C(=O)O | inactive
10 | CNC(=O)[C@H]1C[C@H](Oc2cccnc2)CN1C(=O)NCc1ccc(C)cc1 | inactive
11 | Cc1noc(-c2ccc(OC3CN(C(=O)c4cccc5[nH]ccc45)C3)cc2)n1 | inconclusive: 50.1 µM [inhibitor, partial curve, poor fit]
12 | CC(=O)N1CCC(c2nnc3n2C(C(=O)Nc2ccc(C)cc2)CC3)CC1 (stereo not drawn) | inactive
13 | COC(=O)[C@@H]1Cc2ncn(Cc3ccc(OC)cc3)c2CN1S(=O)(=O)c1cccc(C(F)(F)F)c1 | inconclusive: 79.4 µM [inhibitor, single point]
14 | O=C(NC1CCCc2c1[nH]c1c(Cl)cccc21)c1ccco1 (stereo not drawn) | active: 44.7 µM
15 | Cc1noc(C)c1C(=O)N1CCC2(CC1)CN([S+](C)(=O)[O-])Cc1ccccc1O2 | inactive
16 | COCCNC(=O)c1cnc2c(c1)N(C(=O)Cc1ccc(C(C)C)cc1)CCC2 | inconclusive: 79.4 µM [inhibitor, partial curve, poor fit]
17 | COCC(=O)N1CCn2c(nn(-c3ccc(F)cc3)c2=O)C1 | inconclusive: 100 µM [inhibitor, partial curve]
18 | CCOC(=O)C1CCN(C(=O)c2ccc3nnc(-c4cc(C(F)(F)F)cc(C(F)(F)F)c4)n3c2)CC1 | inconclusive: 79.4 µM [inhibitor, partial curve]
19 | O=C1c2c(nc(CN3CCC(F)(F)CC3)n2Cc2ccccc2)NCCN1CCOc1ccccc1 | inconclusive: 56.2 µM [inhibitor, partial curve, poor fit]
20 | CCNC(=O)N1CCCN(S(=O)(=O)c2ccccc2)CCC(=O)NCC1 | inactive
21 | CCCN(CC1CCOC1)C(=O)Nc1ccc(C(F)(F)F)cc1 (stereo not drawn) | inactive
22 | Cc1nn2c(c1-c1ccccc1Oc1ccccc1)N(Cc1cccc(O)c1)CCC2 | active: 22.4 µM

Row | SMILES | Potency
23 | Cn1cnc(S(=O)(=O)N2CCC(Cc3nncn3-c3ccccc3)CC2)c1 | inactive
24 | CC(C)CCN1CCCC2(CC(Cc3ccccc3)=NO2)C1 (stereo not drawn) | active: 100 µM
25 | CCN1c2cc(C(=O)Nc3ccc(C)c(Cl)c3)ccc2C(=O)N2CCCC21 (stereo not drawn) | inconclusive: 89.1 µM [inhibitor, single point]
26 | Cc1ccsc1C(=O)N1C[C@@H]2CCCN3CCC[C@@H]([C@H]23)[C@H]1CCCC(=O)N1CCOCC1 | inactive
27 | N[C@@H]1CC[C@H](C(=O)N2CCN(Cc3cccc(C(F)(F)F)c3)CC2)C1 | inconclusive: 8.91 µM [inhibitor, full curve, poor fit]
28 | CNC(=O)c1cc(C2CC2)nc2onc(C3CCN(C(=O)C(C)(C)C)CC3)c12 | inactive
29 | CC1(c2ccccc2)N(Cc2ccc(O)cc2)C(=O)OC12CCN(Cc1cccnc1)CC2 (stereo not drawn) | inactive
30 | CC(C)CC(=O)Nc1ccnn1C1CCN(C(=O)c2scc3c2CCCC3)CC1 | inconclusive: 89.1 µM [inhibitor, single point]
31 | COc1ccc(-c2ccnc(N[C@H]3CO[C@H]4[C@@H]3OC[C@@H]4NS(=O)(=O)c3ccc4ccccc4c3)n2)cc1 | active: 22.4 µM
32 | O=C(c1ccc(Cl)cc1)N(CC1CCOC1)C1CC1 (stereo not drawn) | inactive
33 | COc1ccc(-c2cc3nc4c(c(=O)n3[nH]2)CN(C(=O)NCc2ccco2)CC4)cc1 | inconclusive: 50.1 µM [inhibitor, partial curve, poor fit]
34 | COCc1cc(=O)n(CC(=O)Nc2ccc(C)cc2Cl)c(N2CCOCC2)n1 | inactive
35 | Cn1ncnc1CCNC(=O)c1cn(CCC2CCCCN2)nn1 (stereo not drawn) | inconclusive: 100 µM [inhibitor, single point]
36 | COc1cccc(-c2c(C(=O)NCc3ccc(Cl)cc3)nc3sccn23)c1 | inconclusive: 50.1 µM [inhibitor, partial curve, poor fit]
37 | CC(C)CCN1CCc2ncc(C(=O)NCCOc3ccccc3)n2CC1 | active: 28.2 µM
38 | COc1cccc(C(CC(=O)NC2CCCCC2)c2c[nH]c3ccccc23)c1OC (stereo not drawn) | inconclusive: 89.1 µM [inhibitor, single point]
39 | O=C(c1ccc(-c2ccc(CO)cc2)nc1)N1CCC(CCc2ccccc2)CC1 | inconclusive: 56.2 µM [inhibitor, partial curve, poor fit]
40 | CSc1cccc(NC(=O)O[C@@H]2CC[C@]3(C)C(CC[C@@H](O)[C@H]3CC(=O)N3CCCC3)[C@]2(C)CO)c1 (stereo partly drawn) | inconclusive: 50.1 µM [inhibitor, partial curve, poor fit]
41 | CCN1c2cc(C(=O)Nc3ccccc3F)ccc2C(=O)N2CCCC21 (stereo not drawn) | inconclusive: 79.4 µM [inhibitor, partial curve, poor fit]
42 | Cc1ccccc1-c1onc(C)c1C(=O)NCc1cc(F)cc(F)c1 | inconclusive: 44.7 µM [inhibitor, partial curve, poor fit]
43 | O=C(C1CC1)N1CCCC(Cc2noc(-c3ccccc3)n2)C1 (stereo not drawn) | inconclusive: 89.1 µM [inhibitor, partial curve, poor fit]
